Assay results reported in PubChem BioAssay AID504339 (National Center for Advancing Translational Sciences (NCATS), 2011).
Hit rate of the full screen: of about 390,000 compounds, about 17,000 (4.4%) were called active. Inconclusive means that the source gave no clear call. Such entries were picked first, then a sample of the others. Calls come from the whole dose curve; as a rule, active = well fitted inhibition curve with a large enough effect; inconclusive = small, poorly fitted or top-dose-only effect; inactive = no such curve, though single readings can be large or run the other way. Where the call is inconclusive, the potency comes from a doubtful curve fit.

Target: Lysine-specific demethylase 4A (Homo sapiens) (UniProt O75164)
UniProt O75164, sequence (O75164 whole entry, looked up, the tested form may be a part): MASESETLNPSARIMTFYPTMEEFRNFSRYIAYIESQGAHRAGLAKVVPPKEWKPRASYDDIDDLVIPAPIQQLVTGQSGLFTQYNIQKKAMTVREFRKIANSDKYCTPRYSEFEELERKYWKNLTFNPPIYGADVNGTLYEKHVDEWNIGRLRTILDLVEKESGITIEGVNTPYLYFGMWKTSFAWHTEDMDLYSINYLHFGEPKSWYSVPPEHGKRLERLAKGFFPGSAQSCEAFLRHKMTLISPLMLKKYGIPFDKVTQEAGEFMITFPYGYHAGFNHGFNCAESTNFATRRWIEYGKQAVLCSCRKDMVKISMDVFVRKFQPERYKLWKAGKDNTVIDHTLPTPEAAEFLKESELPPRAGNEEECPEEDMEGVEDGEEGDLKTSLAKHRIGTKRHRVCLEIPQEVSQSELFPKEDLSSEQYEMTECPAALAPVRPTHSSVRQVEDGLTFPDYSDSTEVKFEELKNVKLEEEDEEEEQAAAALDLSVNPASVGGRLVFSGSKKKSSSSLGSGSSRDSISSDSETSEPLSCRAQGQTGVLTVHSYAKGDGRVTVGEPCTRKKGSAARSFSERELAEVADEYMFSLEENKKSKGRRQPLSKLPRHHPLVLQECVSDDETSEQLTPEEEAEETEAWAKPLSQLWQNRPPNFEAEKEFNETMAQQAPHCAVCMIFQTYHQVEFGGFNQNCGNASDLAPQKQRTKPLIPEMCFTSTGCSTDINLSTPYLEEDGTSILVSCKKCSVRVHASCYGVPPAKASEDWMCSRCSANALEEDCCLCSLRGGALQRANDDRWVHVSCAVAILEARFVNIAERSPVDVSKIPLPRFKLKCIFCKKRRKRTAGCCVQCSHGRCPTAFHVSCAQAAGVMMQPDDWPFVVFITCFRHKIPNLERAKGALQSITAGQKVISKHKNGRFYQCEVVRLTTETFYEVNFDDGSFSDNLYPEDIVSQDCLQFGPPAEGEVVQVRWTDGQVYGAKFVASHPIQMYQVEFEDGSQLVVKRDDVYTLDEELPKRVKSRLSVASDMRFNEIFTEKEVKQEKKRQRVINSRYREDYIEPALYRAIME
Assay: qHTS Assay for Inhibitors of JMJD2A-Tudor Domain; note: nearly all actives have a fitted effect of over 50% in size
Settings: AlphaScreen JMJD2A-Tudor / H3K4me3 peptide binding; activity change, negative = inhibition: at 114 µM (top of the series)
% is set by controls: 0 for no effect and ±100 for the full control effect; potency is the fitted concentration of half-maximal effect; tags give direction and shape of the fitted curve.

SMILES	Potency	activity change, negative = inhibition
COc1cc(C(=S)N2CCOCC2)cc(OC)c1OC(=O)c1ccc(F)cc1	inactive	–
CC(C)(C)NC(=S)N/N=C/c1cc(Br)c(O)c(Br)c1	inconclusive: 50.1 µM [inhibitor, partial curve]	–
CN(C)c1ccc(C(=S)NC2CCCCC2)cc1	inconclusive: 44.7 µM [inhibitor, partial curve]	–
O=C(C(Br)=Cc1ccccc1)c1ccccc1	inactive	–
CCOc1ccc(/C=C2\SC(=S)N(N3C(=O)C4CC4C3=O)C2=O)cc1 (configuration not stated)	inconclusive: 17.8 µM [inhibitor, partial curve]	–
CC(NC(=O)COC(=O)c1cn(-c2ccccc2)nc1-c1cccs1)c1ccccc1 (configuration not stated)	inconclusive: 22.4 µM [inhibitor, full curve, poor fit]	–
COc1ccc(N2C(=O)CS(=O)(=O)C23C(=O)N(Cc2ccccc2F)c2ccccc23)cc1Cl (configuration not stated)	inactive	–
COc1ccc(S(=O)(=O)N2CCc3cc4c(cc3C2C)OCCCO4)cc1 (configuration not stated)	inactive	–
COc1ccc(Br)cc1CNC(=O)c1cc(=O)[nH]c2ccc(S(=O)(=O)N3CCCCC3C)cc12 (configuration not stated)	inconclusive: 89.1 µM [inhibitor, partial curve, poor fit]	–
O=C1CC(=C2c3ccccc3-c3ccccc32)C(=O)N1CCN1CCN(c2ccccc2)CC1	inconclusive: 22.4 µM [inhibitor, full curve]	–
CC(C)c1cc[n+](-c2nc([O-])sc2C=O)cc1	active: 35.5 µM	–
Cc1cccc(Nc2nc3c(s2)CCCC3)c1	inconclusive: 50.1 µM [inhibitor, partial curve]	–
O=C(/C=C\Nc1ccc2c(c1)OCO2)c1ccc2c(c1)OCO2	inconclusive: 11.2 µM [inhibitor, full curve]	–
Cc1ccc(C(=O)Nc2ccc(Cl)cc2C)c(Cl)c1	inactive	–
COC(=O)CCC(=O)OC1(C)C(=O)C2=CN(Cc3ccccc3)C(c3ccc(OC)cc3)=CC2=C(Br)C1=O (configuration not stated)	inconclusive: 50.1 µM [inhibitor, partial curve]	–
O=C(Nc1nc(-c2ccccn2)cs1)c1ncc(Cl)c(Cl)c1Cl	inactive	–
COc1ccc(-c2nc(N)nc(C)c2-c2ccc(Cl)cc2)c(O)c1	inconclusive: 50.1 µM [inhibitor, partial curve]	–
O=C(CNC(=O)c1ccc(Br)o1)Nc1ccc(N2CCCCCC2)cc1	inconclusive: 2.82 µM [inhibitor, partial curve, poor fit]	–
Cc1sc(-n2c(C)cc(/C=N/n3cnnc3)c2C)c(C#N)c1C	inconclusive: 79.4 µM [inhibitor, partial curve]	–
CC(=O)Nc1ccc(SCC(=O)c2cc(C)n(-c3ccccc3F)c2C)cc1	inconclusive: 35.5 µM [inhibitor, partial curve]	–
CCOc1ccc(C2C(C(=O)Nc3ccccc3)=C(C)N=c3s/c(=C/c4cccc(OCC(=O)O)c4)c(=O)n32)cc1 (configuration not stated)	inconclusive: 50.1 µM [inhibitor, partial curve]	–

SMILES	Potency	activity change, negative = inhibition
Cc1cc(NC2CCCCC2)nc(-c2ccccc2O)n1	active: 7.94 µM	–
COc1ccccc1C(=O)Nc1nnc(S(=O)(=O)N2CCOCC2)s1	inactive	–
CCCCOc1ccc(C2=NC(c3cccs3)=Nc3ccc(OC)cc3N2)cc1	active: 39.8 µM	–
Cc1cccc(C(=O)NCc2nnc(SCC(=O)NC3=NCCS3)n2C)c1	active: 39.8 µM	–
NC(=O)c1ccc[n+]([C@H]2O[C@@H](COP(=O)([O-])OP(=O)(O)OC[C@H]3O[C@@H](n4cnc5c(N)ncnc54)[C@H](O)[C@@H]3O)[C@H](O)[C@@H]2O)c1	active: 79.4 µM	–
CCOC(=O)c1cc2c(C)n(-c3ccc(C)cc3)c(C)c2ccc1=O	inconclusive: 100 µM [inhibitor, single point]	–
C[C@H](CO)N1C[C@H](C)[C@@H](CN(C)Cc2ccc(Oc3ccccc3)cc2)Oc2c(NC(=O)C3CC3)cccc2C1=O	inconclusive: 31.6 µM [inhibitor, partial curve]	–
CCOC(=O)c1c(C)[nH]c(C)c1S(=O)(=O)NCC(=O)Nc1cccc(SC)c1	inconclusive: 63.1 µM [inhibitor, partial curve, poor fit]	–
CCN(CC)c1ccc(NC(=O)CSc2n[nH]c(-c3ccco3)n2)cc1	inconclusive: 35.5 µM [inhibitor, partial curve]	–
CCN(CC)c1ccc(C(=O)NCc2nc3cccnc3n2Cc2ccc(C)cc2)cc1	inconclusive: 39.8 µM [inhibitor, partial curve]	–
Fc1ccc(Cn2cc(C(=S)N3CCOCC3)c3ccccc32)cc1	inconclusive: 50.1 µM [inhibitor, partial curve]	–
O=C(NC1=NCCS1)c1cccc(NC(=O)c2ccco2)c1	inconclusive: 89.1 µM [inhibitor, single point]	–
Cc1ccc(S(=O)(=O)NNC(=O)c2sccc2-n2cccc2)cc1	inconclusive: 20 µM [inhibitor, partial curve]	–
COc1ccccc1NCc1ccc([N+](=O)[O-])s1	inconclusive: 28.2 µM [inhibitor, single point]	–
CCCOC(=O)CCCN1C(=O)/C(=C2\SC(=S)N(CCCC(=O)OCCC)C2=O)SC1=S	inconclusive: 3.98 µM [inhibitor, full curve]	–
CC(C)C(C(=O)NC1CCCC1)N(CC1CCCO1)C(=O)CNS(=O)(=O)c1ccc(F)cc1 (configuration not stated)	inactive	–
c1csc(-c2nc3nc4ccccc4nc3n2Cc2ccc3c(c2)OCO3)c1	–	inactive: 9.16% [at 11.4 µM]
COc1cccc(/C=N/NC(=O)c2ccncc2)c1OC(=O)c1ccc(Br)cc1	inconclusive: 14.1 µM [inhibitor, full curve, poor fit]	–
CN(c1ccc(F)cc1)S(=O)(=O)c1ccc(Cl)c(C(=O)NC2(C)CCS(=O)(=O)C2)c1 (configuration not stated)	inactive	–
Cc1cc2cc(CNC(=O)c3cccc([N+](=O)[O-])c3)ccc2n1C	inconclusive: 14.1 µM [inhibitor, full curve, poor fit]	–
O=C(CS(=O)c1cccc(C(F)(F)F)c1)Nc1ccc(Cl)cc1Cl (configuration not stated)	inactive	–
